# From the supplement of paper PMC4604168 (melanoma cell lines)
# This is one part of the list. Single values are uncertain, as repeats are few or missing.
# Legend:
# Experiment in all cases: cell count relative to DMSO control; melanoma cells; higher = more viable cells
# Settings in all cases: library dose: low library concentration; 72 h
# WM115 = tested on: WM115
# WM1716 = tested on: WM1716
# WM1745 = tested on: WM1745
# WM3526 = tested on: WM3526
# WM3619 = tested on: WM3619
# WM451Lu = tested on: WM451Lu
# 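Further: cell number obtained by counting DAPI-stained nuclei in high-throughput microscope images with image analysis software, screen run in 1,536-well plates.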
SMILES,cell count (WM115),cell count (WM1716),cell count (WM1745),cell count (WM3526),cell count (WM3619),cell count (WM451Lu)
"O=C(O)[C@@H]1[O][Sb](=[O])([O][Sb]2(=[O])[O][C@H]([C@H](O)CO)[C@H](O)[C@H](C(=O)O)[O]2)[O][C@H]([C@H](O)CO)[C@@H]1O (stereo partly drawn) [stibogluconate] + CN(NC(=O)CC(=O)NN(C)C(=S)c1ccccc1)C(=S)c1ccccc1 [STA4783] (first compound 2 µM, partner dose 0.006 µM)",101%,81.3%,91.7%,93.8%,112%,126%
"O=C(O)[C@@H]1[O][Sb](=[O])([O][Sb]2(=[O])[O][C@H]([C@H](O)CO)[C@H](O)[C@H](C(=O)O)[O]2)[O][C@H]([C@H](O)CO)[C@@H]1O (stereo partly drawn) [stibogluconate] + CC1(C)NC(=O)N(c2ccc([N+](=O)[O-])c(C(F)(F)F)c2)C1=O [nilutamide] (first compound 2 µM, partner dose 1 µM)",109%,109%,113%,85.3%,108%,98.6%
"O=C(O)c1ccc2c(c1)nc(Nc1cccc(Cl)c1)c1ccncc12 + Cn1cc(/C=C2\C(=O)Nc3cccnc32)c2ccccc21 [GW441756] (first compound 0.4 µM, partner dose 0.4 µM)",96.1%,108%,98.7%,114%,105%,98.1%
"O=C(O)c1ccc2c(c1)nc(Nc1cccc(Cl)c1)c1ccncc12 + C#Cc1cccc(Nc2ncnc3cc(OCCOC)c(OCCOC)cc23)c1 [erlotinib] (first compound 0.4 µM, partner dose 0.8 µM)",107%,88.6%,95.1%,77.4%,89.2%,79.8%
"O=C(O)[C@@H]1[O][Sb](=[O])([O][Sb]2(=[O])[O][C@H]([C@H](O)CO)[C@H](O)[C@H](C(=O)O)[O]2)[O][C@H]([C@H](O)CO)[C@@H]1O (stereo partly drawn) [stibogluconate] + O=S(=O)(c1ccccc1)N(CC(F)(F)F)c1ccc(C(O)(C(F)(F)F)C(F)(F)F)cc1 [T0901317] (first compound 2 µM, partner dose 1.4 µM)",103%,104%,77.4%,96.6%,108%,109%
"O=C(O)c1ccc2c(c1)nc(Nc1cccc(Cl)c1)c1ccncc12 + COc1ccc(Cl)c(Nc2nc3ccccc3nc2NS(=O)(=O)c2cccc(NC(=O)C(C)(C)N)c2)c1 [XL147] (first compound 0.4 µM, partner dose 0.8 µM)",111%,76.6%,75.7%,84.1%,95.3%,91.5%
"O=C(O)[C@@H]1[O][Sb](=[O])([O][Sb]2(=[O])[O][C@H]([C@H](O)CO)[C@H](O)[C@H](C(=O)O)[O]2)[O][C@H]([C@H](O)CO)[C@@H]1O (stereo partly drawn) [stibogluconate] + Cn1cncc1[C@@](N)(c1ccc(Cl)cc1)c1ccc2c(c1)c(-c1cccc(Cl)c1)cc(=O)n2C [tipifarnib] (first compound 2 µM, partner dose 0.01 µM)",93.9%,83.2%,109%,92.2%,88.5%,79.7%
"O=C(Nc1cc(C(F)(F)F)cc(C(F)(F)F)c1)c1cc(Cl)ccc1O + COc1ccc(-c2ccc3c(N4CCOCC4)nc(N4C[C@@H](C)O[C@@H](C)C4)nc3n2)cc1CO [KU0063794] (first compound 0.016 µM, partner dose 0.02 µM)",101%,119%,99.1%,89.1%,98.1%,105%
"O=C(O)c1ccc2c(c1)nc(Nc1cccc(Cl)c1)c1ccncc12 + C[C@@H]1CCN(C(=O)CC#N)C[C@@H]1N(C)c1ncnc2[nH]ccc12 [CP690550] (first compound 0.4 µM, partner dose 1 µM)",122%,94.3%,114%,94.6%,100%,92.2%
"O=C(Nc1ccccc1)c1cc([N+](=O)[O-])ccc1Cl + COc1ccc(-c2ccc3c(N4CCOCC4)nc(N4C[C@@H](C)O[C@@H](C)C4)nc3n2)cc1CO [KU0063794] (first compound 2 µM, partner dose 0.02 µM)",83.7%,95.7%,82.8%,103%,84.9%,102%
"O=C(O)c1ccc2c(c1)nc(Nc1cccc(Cl)c1)c1ccncc12 + C[C@]1(c2nc3c(C(N)=O)cccc3[nH]2)CCCN1 [Veliparib] (first compound 0.4 µM, partner dose 1.4 µM)",105%,43.4%,96%,77.8%,82.9%,101%
"Cc1cc(N2CCOCC2)cc2[nH]c(-c3c(NC[C@@H](O)c4cccc(Cl)c4)cc[nH]c3=O)nc12 + COc1cc(N2CCC(N3CCN(C)CC3)CC2)ccc1Nc1ncc(Cl)c(Nc2ccccc2S(=O)(=O)C(C)C)n1 [NVP-TAE684] (first compound 0.2 µM, partner dose 0.08 µM)",98.6%,97.9%,68.8%,84.9%,99.2%,90.7%
"O=C(O)[C@@H]1[O][Sb](=[O])([O][Sb]2(=[O])[O][C@H]([C@H](O)CO)[C@H](O)[C@H](C(=O)O)[O]2)[O][C@H]([C@H](O)CO)[C@@H]1O (stereo partly drawn) [stibogluconate] + COC(=O)c1sccc1S(=O)(=O)Nc1ccc(Nc2ccccc2)cc1OC [GSK0660] (first compound 2 µM, partner dose 1 µM)",113%,108%,104%,110%,129%,117%
